{
  "source": "PubChem BioAssay AID686978",
  "about": "(National Center for Advancing Translational Sciences (NCATS), 2013)",
  "note": "Out of some 420,000 compounds screened, about 64,000 (15%) were called active. This list was built around the results that the source calls inconclusive (neither active nor inactive); the mix of calls is not that of the screen. The call rests on the fitted dose curve; in most records, active means well fitted inhibition curve with a large enough effect; inconclusive means small, poorly fitted or top-dose-only effect; inactive means flat fitted curve, though single readings scatter. Potencies of inconclusive entries are left out as doubtful fits. On the % scale 0 is the no-effect control and ±100 the full control effect; potency means the concentration at half of the fitted maximal effect; tags describe the fitted curve by direction and shape.",
  "data": [
    {"test": "qHTS for Inhibitors of human tyrosyl-DNA phosphodiesterase 1 (TDP1): qHTS in cells in absence of CPT; further: nearly all actives have a fitted effect of over 55% in size", "settings": "DT40 Tdp1-/- hTDP1 cells, no CPT, ATP luminescence, 48 h; activity change, negative = growth inhibition: at 46.2 µM (top of the series)", "how_it_was_run": "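Chicken DT40 Tdp1-/- cells complemented with human TDP1, screened without camptothecin (DMSO vehicle only), 400 cells/well. Compounds pin-transferred, cells incubated at 37 °C for at least 48 hr. Growth read as ATP-dependent luminescence (CellTiter-Glo, 30 min at RT).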", "values": [
      {"smiles": "CCCCOc1ccc(CNn2c(C)nc3ccccc3c2=O)cc1", "Potency": "active: 23.1 µM"},
      {"smiles": "CCOc1ccc(-c2c(C(=O)N/N=C/c3cccnc3)nnn2-c2nonc2N)cc1", "activity change, negative = growth inhibition": "inactive: -0.439%"},
      {"smiles": "CCOC(=O)CN(C#N)c1nc(N(C)C)nc(N(C)C)n1", "activity change, negative = growth inhibition": "inactive: -28.2%"},
      {"smiles": "O=[N+]([O-])c1cc(S(=O)(=O)Nc2ccc(Cl)cc2)ccc1N/N=C/c1ccncc1", "Potency": "active: 5.8 µM"},
      {"smiles": "CC(C)[C@H](NC(=O)c1ccccc1)C(=O)OCC(=O)N1CCCc2ccccc21", "activity change, negative = growth inhibition": "inactive: -15.1%"},
      {"smiles": "CC1(C(=O)NCc2ccccc2)CSCC(=O)N1C1CCN(Cc2ccccc2)CC1", "note": "(centres undefined)", "activity change, negative = growth inhibition": "inactive: -7.95%"},
      {"smiles": "CCOC(=O)Cc1csc(NC(=O)CS(=O)(=O)Cc2ccccc2)n1", "Potency": "inconclusive [inhibitor, single point]"},
      {"smiles": "O=C(CN1CCN(Cc2ccc(Cl)cc2)C1=O)NCc1ccc(F)cc1", "Potency": "inconclusive [inhibitor, single point]"},
      {"smiles": "Cc1ccc2c(c1)C(c1ccccc1)N(C(=O)c1cc3ccccc3oc1=O)CC(=O)N2", "note": "(centres undefined)", "Potency": "inconclusive [inhibitor, single point]"},
      {"smiles": "C=C1CCC2[C@](C)(CO[C@@H]3O[C@H](CO)[C@@H](O)[C@H](O)[C@H]3O)CCC[C@@]2(C)[C@@H]1CCC1=CCOC1=O", "note": "(some centres undefined)", "Potency": "inconclusive [inhibitor, partial curve]"},
      {"smiles": "COc1cc2c(cc1OC)C(NC(=O)C(F)(F)F)CNC2=O", "note": "(centres undefined)", "Potency": "inconclusive [inhibitor, partial curve, poor fit]"},
      {"smiles": "CC(=O)Nc1cc(-c2cccc(C(=O)NCCO)c2)cn2c(-c3cccc(C(F)(F)F)c3)cnc12", "Potency": "active: 23.1 µM"},
      {"smiles": "CCC(c1nc2ccccc2[nH]1)n1c(-c2ccc3ccccc3c2)nc2ccccc21", "note": "(centres undefined)", "Potency": "inconclusive [inhibitor, single point]"},
      {"smiles": "Cc1ccccc1-c1ccc(CN2CCc3nnc(CNC(=O)c4ccccn4)n3CC2)cc1", "Potency": "inconclusive [inhibitor, single point]"},
      {"smiles": "CC(C)(C)C(=O)COC(=O)C1=NN(c2ccccc2)C(=O)CC1", "activity change, negative = growth inhibition": "inactive: -2.6%"},
      {"smiles": "Cc1c(CCNC(=O)Cc2ccccc2)sc2nc(-c3ccc(F)cc3)nn12", "Potency": "inconclusive [inhibitor, single point]"},
      {"smiles": "CCOc1ccccc1N(C)C(=O)C1CCCN(c2ncnc3onc(-c4ccc(F)cc4)c23)C1", "note": "(centres undefined)", "Potency": "active: 8.2 µM"},
      {"smiles": "Cn1c(=O)c2c(nc(CN3CCN(C(c4ccccc4)c4ccccc4)CC3)n2CCCO)n(C)c1=O", "Potency": "active: 20.6 µM"},
      {"smiles": "Oc1ccc(-c2nc(-c3ccccc3)c(-c3ccc(Br)cc3)[nH]2)cc1", "Potency": "inconclusive [inhibitor, single point]"},
      {"smiles": "COc1cc(NC(=O)CN2c3ccccc3CC2C)cc(OC)c1OC", "note": "(centres undefined)", "Potency": "inconclusive [inhibitor, single point]"},
      {"smiles": "CCCOC(=O)C1C2C=CC(C3CC23)C1C(=O)OCC(=O)c1ccccc1", "note": "(centres undefined)", "Potency": "inconclusive [inhibitor, single point]"},
      {"smiles": "CC(C)c1cc(Cn2c3ccccc3c(=O)n2C(C)Cn2cc(CCCC#N)nn2)on1", "note": "(centres undefined)", "activity change, negative = growth inhibition": "inactive: 9.45%"},
      {"smiles": "Cc1nn(-c2ccccc2)c2c1cc1c(=O)n(C)c(=O)nc-1n2-c1cccc(Cl)c1", "activity change, negative = growth inhibition": "inactive: -22.7%"},
      {"smiles": "CC(C)CN1CCN(Cc2ccc3ncccc3c2)CC1CCO", "note": "(centres undefined)", "activity change, negative = growth inhibition": "inactive: 18.7%"},
      {"smiles": "COc1ccc(C(=O)N/C(=C/c2ccco2)C(=O)NCc2ccco2)cc1", "activity change, negative = growth inhibition": "inactive: -1.89%"},
      {"smiles": "O=C(NC1CCCCC1)C(c1cccs1)N(CCCN1CCOCC1)C(=O)c1ccc(-c2ccccc2)[nH]1", "note": "(centres undefined)", "Potency": "active: 14.6 µM"},
      {"smiles": "COc1ccc(N2CCN(C(CNC(=O)C3CCCCC3)c3ccco3)CC2)cc1", "note": "(centres undefined)", "Potency": "inconclusive [inhibitor, single point]"},
      {"smiles": "COc1ccccc1NC(=O)C1CCN(S(=O)(=O)c2ccc3[nH]c4c(c3c2)CCCCC4)CC1", "Potency": "inconclusive [inhibitor, single point]"},
      {"smiles": "COc1ccc(NC(=O)C(OC)c2ccccc2)cc1Cl", "note": "(centres undefined)", "activity change, negative = growth inhibition": "inactive: -29.9%"},
      {"smiles": "CC(C)(C)[C@H]1CCC(=O)N([C@H](CSc2ccc(Br)cc2)Cc2ccccc2)CC1", "Potency": "active: 14.1 µM"},
      {"smiles": "Cc1cccc(Nc2nnc(SCC(=O)N(C)C3CCS(=O)(=O)C3)s2)c1C", "note": "(centres undefined)", "Potency": "inconclusive [inhibitor, full curve, poor fit]"},
      {"smiles": "CCOc1ccc(-n2cnc3sc4c(c3c2=O)CCCC4)cc1", "Potency": "inconclusive [inhibitor, single point]"},
      {"smiles": "Cc1sc2ncnc(SCC(=O)Nc3nc(-c4ccc(F)c(F)c4)cs3)c2c1C", "Potency": "active: 20.6 µM"},
      {"smiles": "CN(Cc1ccccc1)Cc1nc2c(c(=O)n(C)c(=O)n2C)n1Cc1ccc(Cl)cc1", "Potency": "inconclusive [inhibitor, single point]"},
      {"smiles": "COc1ccc2[nH]c3c(=O)n(CCCC(=O)NC4CCC(C)CC4)c(=S)[nH]c3c2c1", "note": "(centres undefined)", "activity change, negative = growth inhibition": "inactive: 0.564%"},
      {"smiles": "C[C@@H]1CN([C@@H](C)CO)C(=O)CCCn2nncc2CO[C@@H]1CN(C)C(=O)c1ccncc1", "activity change, negative = growth inhibition": "inactive: -24.2%"},
      {"smiles": "CC(=O)c1ccc(-c2cc([C@H]3[C@H]4C=CC[C@@H](C)[C@@H]4C(=O)N3Cc3ccccc3)ccc2F)cc1", "Potency": "active: 13 µM"},
      {"smiles": "OC(c1cccc(F)c1)c1ncc(-c2ccc3ccccc3c2)[nH]1", "note": "(centres undefined)", "Potency": "inconclusive [inhibitor, single point]"},
      {"smiles": "Cc1ccc2c(C)c(C(=O)N3CCC(N4CCC(C(=O)NC5CC5)CC4)CC3)oc2c1", "activity change, negative = growth inhibition": "inactive: -6.02%"},
      {"smiles": "Cc1ccc(-c2n[nH]c(=S)n2C)cc1Cl", "Potency": "inconclusive [inhibitor, single point]"},
      {"smiles": "CN(Cc1ccc(C(C)(C)C)cc1)C(=O)C1CSC2(C)CCC(=O)N12", "note": "(centres undefined)", "Potency": "inconclusive [inhibitor, partial curve, poor fit]"},
      {"smiles": "O=C(NCCc1ccccc1)C(=O)NCC1OCCN1S(=O)(=O)c1ccc(Cl)cc1", "note": "(centres undefined)", "Potency": "inconclusive [inhibitor, single point]"},
      {"smiles": "Cc1csc(SCC(=O)Nc2nc3ccccc3s2)n1", "Potency": "inconclusive [inhibitor, single point]"},
      {"smiles": "CCn1c(=O)[nH]c2cc(C(=O)N3CCN(c4ccccc4)CC3)ccc2c1=O", "Potency": "inconclusive [inhibitor, partial curve]"}
    ]}
  ]
}
